A word on the pIC50: it is the negative decadic logarithm of the IC50, by convention in mol/L.

pIC50: −log10 of the molar value.

Among the data in patent US20250214977A1, “STAT6 INHIBITORS AND USES THEREOF” (Kymera Therapeutics, Inc., priority 2024, published 2025) are IC50 values, retold here.

The assay concerns the target T1, biotinylated truncated STAT6 (123-632)-avi (Homo sapiens, UniProt P42226).
T1 sequence (P42226 123-632 limits assumed): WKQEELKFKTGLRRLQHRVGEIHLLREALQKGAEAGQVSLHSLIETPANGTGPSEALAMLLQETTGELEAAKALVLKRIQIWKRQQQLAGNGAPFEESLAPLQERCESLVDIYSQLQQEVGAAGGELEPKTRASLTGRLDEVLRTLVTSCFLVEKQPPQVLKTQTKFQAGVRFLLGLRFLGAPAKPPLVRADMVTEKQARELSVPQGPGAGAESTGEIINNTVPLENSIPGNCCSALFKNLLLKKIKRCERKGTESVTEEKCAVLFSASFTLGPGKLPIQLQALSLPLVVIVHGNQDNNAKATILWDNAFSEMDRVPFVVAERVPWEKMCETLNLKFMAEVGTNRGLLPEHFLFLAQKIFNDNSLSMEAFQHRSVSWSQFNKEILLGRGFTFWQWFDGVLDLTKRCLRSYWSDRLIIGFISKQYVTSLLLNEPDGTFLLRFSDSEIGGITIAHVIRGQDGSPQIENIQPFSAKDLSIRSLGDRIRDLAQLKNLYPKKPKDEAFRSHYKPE
Put plainly: Homogenous Time-Resolved Fluorescence (HTRF) binding assay. To be noted: 0.15 nM biotinylated truncated STAT6 (123-632)-avi, 20 nM fluorescein-labeled probe, 30 minutes at room temperature. On the technique in general: In TR-FRET formats the signal depends on donor and acceptor labels being close together.

`COc1ccccc1-c1cc(C2=CCCN(C(=O)CCn3ccnn3)C2)c(F)c2[nH]c(C(=O)N3CCN(C4CC4)CC3)cc12` [Example I-325] gave a negative-log IC50 (pIC50) above 7.00.

Regarding `COc1ccccc1-c1cc(C2=CCCN(C(=O)CCn3ccnn3)C2)c(F)c2[nH]c(C(=O)N3CCN(c4ncccc4OC)CC3)cc12` [Example I-326], the pIC50 was above 7.00. For `CCc1cccnc1N1CCN(C(=O)c2cc3c(-c4ccccc4OC)cc(C4=CCCN(C(=O)CCn5ccnn5)C4)c(F)c3[nH]2)CC1` [Example I-327], the negative logarithm of the IC50 (pIC50) is above 7.00.

The compound `COc1ccccc1-c1cc(C2=CCCN(C(=O)CCn3ccnn3)C2)c(F)c2[nH]c(C(=O)N3CCN(c4ncccc4C#N)CC3)cc12` [Example I-328] gave a pIC50 above 7.00. The value for `COc1ccccc1-c1cc(C2=CCCN(C(=O)CCn3ccnn3)C2)c(F)c2[nH]c(C(=O)N3CCN(c4ncccc4C(F)(F)F)CC3)cc12` [Example I-329] was above 7.00; that for `COCCOc1cccnc1N1CCN(C(=O)c2cc3c(-c4ccccc4OC)cc(C4=CCCN(C(=O)CCn5ccnn5)C4)c(F)c3[nH]2)CC1` [Example I-330] was above 7.00. The result for `COc1ccccc1-c1cc(C2=CCCN(C(=O)CCn3ccnn3)C2)c(F)c2[nH]c(C(=O)N3CCN(c4ncccc4OC(C)C)CC3)cc12` [Example I-332] reads above 7.00; that for `COc1ccccc1-c1cc(C2=CCCN(C(=O)CCn3ccnn3)C2)c(F)c2[nH]c(C(=O)N3CCN(c4ncccc4C(C)C)CC3)cc12` [Example I-333], above 7.00; that for `COc1ccccc1-c1cc(C2=CCCN(C(=O)CCn3ccnn3)C2)c(F)c2[nH]c(C(=O)N3CCN(c4ncccc4Oc4ccccc4)CC3)cc12` [Example I-334], above 7.00. The value for `CCOc1cccnc1N1CCN(C(=O)c2cc3c(-c4ccccc4OC)cc(C4=CCCN(C(=O)CCn5ccnn5)C4)c(F)c3[nH]2)CC1` [Example I-335] was above 7.00; that for `COc1ccccc1-c1cc(C2=CCCN(C(=O)CCn3ccnn3)C2)c(F)c2[nH]c(C(=O)N3CCN(c4ncccc4OC4CC4)CC3)cc12` [Example I-336] was above 7.00.

In turn, `COc1cccnc1N1CCN(C(=O)c2cc3ccc(C4=CCCN(C(=O)CCn5ccnn5)C4)c(F)c3[nH]2)CC1` [Example I-338] had a pIC50 above 7.00. The result for `COc1ccccc1-c1cc(C2=CCCN(C(=O)CCn3ccnn3)C2)c(F)c2[nH]c(C(=O)N3CCN(c4nc5ccccc5nc4C)CC3)cc12` [Example I-339] reads above 7.00; that for `COc1ccccc1-c1cc(C2=CCCN(C(=O)CCn3ccnn3)C2)c(F)c2[nH]c(C(=O)N3CCN(c4cc5c(cnn5C)cc4C)CC3)cc12` [Example I-341], above 7.00. The value for `O=C(CCn1ccnn1)N1CCC=C(c2cc(-c3ccccc3F)c3cc(C(=O)N4CCN(c5ncccc5OC5CC5)CC4)[nH]c3c2F)C1` [Example I-343] was above 7.00; that for `COc1ccccc1-c1cc(C2=CCCN(C(=O)CCn3cccn3)C2)c(F)c2[nH]c(C(=O)N3CCN(c4ncccc4OC4CC4)CC3)cc12` [Example I-345] was above 7.00. For the compound `COc1ccccc1-c1cc(C2=CCCN(C(=O)CCn3ccnn3)C2)c(F)c2sc(C(=O)N3CCN(c4ncccc4OC)CC3)cc12` [Example I-346], the pIC50 is above 7.00. The result for `COc1ccccc1-c1cc(C2=CCCN(C(=O)CCn3ccnn3)C2)c(F)c2[nH]c(C(=O)N3CCN(c4cccnc4OC)CC3)cc12` [Example I-347] reads above 7.00. The value for `COc1ccccc1-c1cc(C2CCCN(C(=O)CCn3ccnn3)C2)c(F)c2[nH]c(C(=O)N3CCN(c4ncccc4OC)CC3)cc12` (stereo not shown) [Example I-348] was above 7.00; that for `COc1ccccc1-c1cc(C2=CCCN(C(=O)CCn3ccnn3)C2)c(F)c2[nH]c(C(=O)N3CCN(c4c(OC)cccc4OC)CC3)cc12` [Example I-350] was above 7.00; that for `CNc1cnc(N2CCN(C(=O)c3cc4c(-c5ccccc5OC)cc(C5=CCCN(C(=O)CCn6ccnn6)C5)c(F)c4[nH]3)CC2)c(OC)c1` [Example I-353] was above 7.00.

In turn, `COc1ccccc1-c1cc(C2=CCCN(C(=O)CCn3ccnn3)C2)c(F)c2[nH]c(C(=O)N3CCN(c4ncc(C5CC5)cc4OC)CC3)cc12` [Example I-354] gave a negative-log IC50 (pIC50) of 6.00 to 7.00. `COc1ccccc1-c1cc(C2=CCCN(C(=O)CCn3ccnn3)C2)c(F)c2[nH]c(C(=O)N3CCN(c4nccc5ccncc45)CC3)cc12` [Example I-355] showed a negative logarithm of the IC50 (pIC50) above 7.00. The value for `COc1ccccc1-c1cc(C2=CCCN(C(=O)CCn3ccnn3)C2)c(F)c2[nH]c(C(=O)N3CCN(c4cc(C#N)ccc4OC)CC3)cc12` [Example I-356, 3-(4-(6-(1-(3-(1H-1,2,3-triazol-1-yl)propanoyl)-1,2,5,6-tetrahydropyridin-3-yl)-7-fluoro-4-(2-methoxyphenyl)-1H-indole-2-carbonyl)piperazin-1-yl)-4-methoxybenzonitrile] was above 7.00. `COc1ccccc1-c1cc(C2=CCCN(C(=O)CCn3ccnn3)C2)c(F)c2[nH]c(C(=O)N3CCN(c4ncccc4OC(F)F)CC3)cc12` [Example I-358]: the negative-log IC50 (pIC50) is above 7.00. The result for `COc1cccc(N2CCN(C(=O)c3cc4c(-c5ccccc5OC)cc(C5=CCCN(C(=O)CCn6ccnn6)C5)c(F)c4[nH]3)CC2)n1` [Example I-359] reads above 7.00; that for `COC(=O)c1ccc(OC)c(N2CCN(C(=O)c3cc4c(-c5ccccc5OC)cc(C5=CCCN(C(=O)CCn6ccnn6)C5)c(F)c4[nH]3)CC2)n1` [Example I-360], above 7.00. The value for `COc1ccccc1-c1cc(C2=CCCN(C(=O)CCn3ccnn3)C2)c(F)c2[nH]c(C(=O)N3CCN(c4ncccc4F)CC3)cc12` [Example I-361] was above 7.00; that for `COc1ccccc1-c1cc(C2=CCCN(C(=O)CCn3ccnn3)C2)c(F)c2[nH]c(C(=O)N3CCN(c4nccc5cnccc45)CC3)cc12` [Example I-362] was above 7.00. The result for `COc1ccccc1-c1cc(C2=CCCN(C(=O)CCn3ccnn3)C2)c(F)c2[nH]c(C(=O)N3CCN(c4nccc5ccccc45)CC3)cc12` [Example I-363] reads above 7.00. `COc1ccccc1-c1cc(C2CCCN(C(=O)CCn3ccnn3)C2)c(F)c2[nH]c(C(=O)N3CCN(c4ncccc4OC4CC4)CC3)cc12` (stereo not shown) [Example I-364] gave a pIC50 above 7.00. With `COc1ccccc1-c1cc(C2=CCCN(C(=O)CCn3ccnn3)C2)c(F)c2[nH]c(C(=O)N3CCN(c4ccncc4OC)CC3)cc12` [Example I-365], the negative logarithm of the IC50 (pIC50) was above 7.00. `COc1cnccc1-c1cc(C2=CCCN(C(=O)CCn3ccnn3)C2)c(F)c2[nH]c(C(=O)N3CCN(c4ncccc4OC)CC3)cc12` [Example I-366]: the pIC50 is above 7.00.

On to `COc1ccccc1-c1cc(C2=CCCN(C(=O)CCn3ccnn3)C2)c(F)c2[nH]c(C(=O)N3CCN(c4c(F)cccc4OC)CC3)cc12` [Example I-367], for which the pIC50 was above 7.00.

On to `COc1ccncc1-c1cc(C2=CCCN(C(=O)CCn3ccnn3)C2)c(F)c2[nH]c(C(=O)N3CCN(c4ncccc4OC)CC3)cc12` [Example I-368], for which the pIC50 is above 7.00. For `COc1ccccc1-c1cc(C2=CCCN(C(=O)CCn3ccnn3)C2)c(F)c2[nH]c(C(=O)N3CCN(c4ncc(Cl)cc4OC)CC3)cc12` [Example I-369], the negative logarithm of the IC50 (pIC50) was above 7.00. The result for `COc1ccccc1-c1cc(C2=CCCN(C(=O)CCn3ccnn3)C2)c(F)c2[nH]c(C(=O)N3CCN(c4ncc(F)cc4OC)CC3)cc12` [Example I-370] reads above 7.00.
